Experimental data published in PubChem BioAssay (Tox21).
The shares of active, inactive and inconclusive entries below differ from those in the screen. For some assays here: A potency beside an inconclusive call is a rough fit, not a confirmed value. Calls of active or inactive are those of the source. Unless noted, calls come from the whole dose curve; as a rule, active = well fitted curve in the direction sought with a large enough effect in the repeat runs; inconclusive = weak or mixed curves; inactive = no such curve, though single readings can be large; an effect the other way counts as inactive or inconclusive.

Columns and labels:
[1] = qHTS assay for small molecule agonists of the antioxidant response element (ARE) signaling pathway (AID 743202; active = well fitted activation curve with a large enough effect in the signal ratio in the repeat runs, not every such curve was filed as active; inconclusive = weak or mixed curves, or effect the other way; inactive = no such curve, though single readings can be large or run the other way; the % refers to the signal ratio; note: potency is the fitted concentration of half-maximal effect; for activation: % is set by controls: 0 for no effect and ±100 for the full control effect); details: HepG2 ARE-bla reporter, beta-lactamase FRET, 16 h; activation: at 73.3 µM (top of the series) unless noted
Outline: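 HepG2 ARE-bla reporter line, 2,000 cells/well; 5 h preincubation 37 C/5% CO2; compound (DMSO) 16 h 37 C; B/G FRET substrate 2 h RT; fluorescence intensity.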

[2] = qHTS assay to identify small molecule agonists of the peroxisome proliferator-activated receptor delta (PPARd) signaling pathway - cell viability counter screen (AID 743211); details: PPARd-bla HEK293H viability, CellTiter-Glo luminescence, 17 h; activity change, negative = cytotoxicity: at 62.6 µM (top of the series); note: nearly all actives have a fitted effect of over 55% in size; note: potency is the fitted concentration of half-maximal effect; for activity change, negative = cytotoxicity: % is set by controls: 0 for no effect and ±100 for the full control effect
Outline: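 In the same wells used for beta-lactamase reporter measurement, cytotoxicity is scored by CellTiter-Glo. HEK293H PPARd-bla cells receive compound for 17 h at 37C following a 5 h settling period.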

[3] = qHTS assay to identify small molecule antagonists of the peroxisome proliferator-activated receptor delta (PPARd) signaling pathway - cell viability counter screen (AID 743213); details: PPARd-bla HEK293H viability, CellTiter-Glo luminescence, 17 h; viability change, negative = cytotoxic: at 62 µM (top of the series) unless noted; note: nearly all actives have a fitted effect of over 50% in size; note: potency is the fitted concentration of half-maximal effect
Outline: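 Agonist-stimulated (L165041, 300 nM final) HEK293H PPARd UAS-bla cells are exposed to compounds for 17 h at 37 C, and ATP-based luminescence (CellTiter-Glo) from the same wells reports cytotoxicity.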

[4] = target: Bile acid receptor (Homo sapiens) (UniProt Q96RI1); test: qHTS assay to identify small molecule antagonists of the farnesoid-X-receptor (FXR) signaling pathway (AID 743217; active = well fitted inhibition curve with a large enough effect in the signal ratio in the repeat runs, not every such curve was filed as active; inconclusive = weak or mixed curves, or effect the other way; inactive = no such curve, though single readings can be large or run the other way; the % refers to the signal ratio; note: % is set by controls: 0 for no effect and ±100 for the full control effect); details: HEK293T FXR-UAS-bla, beta-lactamase ratio, CDCA-stimulated, 16 h; activity change, negative = inhibition: at 62.6 µM (top of the series) unless noted
Outline: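 Quantitative HTS, beta-lactamase reporter format: FXR-UAS-bla HEK 293T cells co-treated 16 h at 37 °C with compounds and 50 uM final chenodeoxycholic acid, then read by B/G FRET fluorescence.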

[5] = qHTS assay to identify small molecule agonists of the farnesoid-X-receptor (FXR) signaling pathway - cell viability counter screen (AID 743218); details: FXR-bla HEK293T viability, CellTiter-Glo luminescence, 16 h; viability change, negative = cytotoxic: at 62.6 µM (top of the series) unless noted; note: nearly all actives have a fitted effect of over 45% in size; note: potency is the fitted concentration of half-maximal effect
Outline: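 Same-well cytotoxicity check on FXR-UAS-bla HEK 293T cells: 5 h attachment, 16 h compound at 37 C, CellTiter-Glo luminescence read at room temperature after 30 min.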

[6] = target: Bile acid receptor (Homo sapiens) (UniProt Q96RI1); test: qHTS assay to identify small molecule agonists of the farnesoid-X-receptor (FXR) signaling pathway (AID 743220; active = well fitted activation curve with a large enough effect in the signal ratio in the repeat runs, not every such curve was filed as active; inconclusive = weak or mixed curves, or effect the other way; the % refers to the signal ratio; note: % is set by controls: 0 for no effect and ±100 for the full control effect); details: HEK293T FXR-UAS-bla, beta-lactamase FRET ratio, 16 h; activation: at 62.6 µM (top of the series)
Outline: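 FXR-UAS-bla HEK 293T cells carrying a UAS-driven beta-lactamase reporter were plated for 5 h at 37C/5% CO2, then exposed to DMSO-dissolved Tox21 10K compounds for 16 h at 37C. A LiveBLAzer B/G FRET substrate was loaded for 2 h at room temperature before fluorescence reading.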

[7] = qHTS assay to identify small molecule antagonists of the farnesoid-X-receptor (FXR) signaling pathway - cell viability counter screen (AID 743221; active = well fitted cell-killing curve with a large enough effect in the repeat runs, not every such curve was filed as active; inconclusive = weak or mixed curves, or effect the other way; inactive = no such curve, though single readings can be large or run the other way; note: nearly all actives have a fitted effect of over 50% in size; note: potency is the fitted concentration of half-maximal effect); details: FXR-bla HEK293T viability, CellTiter-Glo luminescence, 16 h; activity change, negative = cytotoxicity: at 62.6 µM (top of the series) unless noted
Outline: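 Here viability was scored by luminescence after CellTiter-Glo addition to wells already read for beta-lactamase. Prior treatment: compound plus CDCA (50 uM final), 16 h, 37 C, HEK 293T FXR-bla cells.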

[8] = target: Vitamin D3 receptor (Homo sapiens) (UniProt P11473); test: qHTS assay to identify small molecule antagonists of the vitamin D receptor (VDR) signaling pathway (AID 743223; active = well fitted inhibition curve with a large enough effect in the signal ratio in the repeat runs, not every such curve was filed as active; inconclusive = weak or mixed curves, or effect the other way; inactive = no such curve, though single readings can be large or run the other way; the % refers to the signal ratio; note: potency is the fitted concentration of half-maximal effect); details: VDR-UAS-bla HEK293T, beta-lactamase FRET ratio, 16 h
Outline: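 Inhibition of agonist-driven VDR signalling is scored in VDR-bla cells: 3 nM final 1alpha,25-dihydroxyvitamin D3 plus compound, 16 h at 37C, then beta-lactamase detection by FRET substrate fluorescence after 2 h.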

[9] = qHTS assay to identify small molecule antagonists of the vitamin D receptor (VDR) signaling pathway - cell viability counter screen (AID 743225); details: VDR-bla HEK293T viability, CellTiter-Glo luminescence, 16 h; viability change, negative = cytotoxic: at 61 µM (top of the series) unless noted; note: nearly all actives have a fitted effect of over 50% in size; note: potency is the fitted concentration of half-maximal effect
Outline: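 Compounds were pinned onto VDR-bla HEK 293T cells together with 1-alpha,25-dihydroxyvitamin D3 at 3 nM final. After 16 h at 37C and 5% CO2 plus the reporter readout, cell viability was measured by CellTiter-Glo luminescence (30 min, room temperature).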

[10] = target: Peroxisome proliferator-activated receptor delta (Homo sapiens) (UniProt Q03181); test: qHTS assay to identify small molecule agonists of the peroxisome proliferator-activated receptor delta (PPARd) signaling pathway (AID 743212; calls by dose curve; note: potency is the fitted concentration of half-maximal effect); details: HEK293H PPARd-UAS-bla, beta-lactamase FRET ratio, 17 h; activation: at 62.6 µM (top of the series) unless noted
Outline: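 Read-out: beta-lactamase FRET fluorescence after 2 h room-temperature incubation with LiveBLAzer B/G substrate. Cells were HEK293H carrying a UAS-bla reporter for PPARd, treated at 37 C with DMSO-dissolved compounds.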

[11] = qHTS assay for small molecule activators of the heat shock response signaling pathway (AID 743210; active = well fitted activation curve with a large enough effect in the signal ratio in the repeat runs, with a control signal flat, not every such curve was filed as active; inconclusive = weak or mixed curves; the % refers to the signal ratio; note: potency is the fitted concentration of half-maximal effect); details: HeLa HSE-bla reporter, beta-lactamase ratio, 5 h; activation: at 62.6 µM (top of the series) unless noted
Outline: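 Beta-lactamase reporter read-out: FRET substrate fluorescence after 2.5 h at RT, following 5 h compound treatment at 37 C of HeLa cells carrying HSE-driven bla reporter; quantitative HTS format.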

[12] = qHTS assay to identify small molecule agonists of the vitamin D receptor (VDR) signaling pathway - cell viability counter screen (AID 743224); details: VDR-bla HEK293T viability, CellTiter-Glo luminescence, 16 h; activity change, negative = cytotoxicity: at 62.6 µM (top of the series); note: % is set by controls: 0 for no effect and ±100 for the full control effect; nearly all actives have a fitted effect of over 50% in size
Outline: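 Counter screen for cytotoxicity: VDR-bla cells at 2,000 cells/well, 16 h compound exposure, then CellTiter-Glo luminescence after the beta-lactamase measurement.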

[13] = target: Peroxisome proliferator-activated receptor delta (Homo sapiens) (UniProt Q03181); test: qHTS assay to identify small molecule antagonists of the peroxisome proliferator-activated receptor delta (PPARd) signaling pathway (AID 743215; active = well fitted inhibition curve with a large enough effect in the signal ratio in the repeat runs, not every such curve was filed as active; inconclusive = weak or mixed curves, or effect the other way; inactive = no such curve, though single readings can be large or run the other way; the % refers to the signal ratio; note: potency is the fitted concentration of half-maximal effect); details: HEK293H PPARd-UAS-bla, beta-lactamase FRET ratio, antagonist, 17 h; ratio activity, negative = inhibition: at 62 µM (top of the series) unless noted
Outline: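 Screen format: qHTS, antagonist mode. HEK293H PPARd-bla cells received compound and 300 nM L165041 (final), 17 h, 37 C. Beta-lactamase detected via FRET substrate fluorescence, 2 h, room temperature.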

[14] = target: Vitamin D3 receptor (Homo sapiens) (UniProt P11473); test: qHTS assay to identify small molecule agonists of the vitamin D receptor (VDR) signaling pathway (AID 743222; calls by dose curve; note: potency is the fitted concentration of half-maximal effect); details: HEK293T VDR-UAS-bla, beta-lactamase FRET ratio, 16 h; activation: at 63.5 µM (top of the series) unless noted
Outline: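 Using LiveBLAzer B/G FRET detection, agonism was scored in VDR-bla cells exposed overnight (16 h, 37C) to DMSO-dissolved compounds; substrate incubation was 2 h at room temperature.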

[15] = activity change, negative = inhibition: at 61 µM (top of the series) unless noted
Tags give direction and shape of the fitted curve or compound fluorescence and quenching.

Chain of UniProt P11473 (P11473 whole entry, looked up): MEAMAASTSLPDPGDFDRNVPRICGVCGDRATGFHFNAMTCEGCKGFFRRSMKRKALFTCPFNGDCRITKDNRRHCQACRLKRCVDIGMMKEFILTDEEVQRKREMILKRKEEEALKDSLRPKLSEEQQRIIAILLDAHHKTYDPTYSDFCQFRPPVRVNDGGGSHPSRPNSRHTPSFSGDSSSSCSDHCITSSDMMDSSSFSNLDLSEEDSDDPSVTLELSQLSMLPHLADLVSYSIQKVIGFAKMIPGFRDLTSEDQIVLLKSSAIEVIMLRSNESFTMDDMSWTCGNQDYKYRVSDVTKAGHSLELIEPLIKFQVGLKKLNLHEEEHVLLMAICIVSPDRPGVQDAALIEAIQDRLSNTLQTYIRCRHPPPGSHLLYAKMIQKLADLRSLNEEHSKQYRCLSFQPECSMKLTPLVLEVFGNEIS
Chain of UniProt Q03181 (Q03181 whole entry, looked up): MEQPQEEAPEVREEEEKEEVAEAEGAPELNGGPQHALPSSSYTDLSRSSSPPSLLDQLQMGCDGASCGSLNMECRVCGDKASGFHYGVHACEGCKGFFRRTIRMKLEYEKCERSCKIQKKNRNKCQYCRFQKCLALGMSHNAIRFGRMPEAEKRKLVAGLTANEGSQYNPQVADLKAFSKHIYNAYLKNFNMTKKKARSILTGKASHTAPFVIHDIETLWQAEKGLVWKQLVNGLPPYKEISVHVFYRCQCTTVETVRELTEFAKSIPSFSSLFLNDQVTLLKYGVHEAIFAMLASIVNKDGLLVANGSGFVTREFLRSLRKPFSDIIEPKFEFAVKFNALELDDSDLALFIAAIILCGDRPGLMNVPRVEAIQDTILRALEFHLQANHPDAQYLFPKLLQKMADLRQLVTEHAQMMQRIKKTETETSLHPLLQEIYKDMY
Chain of UniProt Q96RI1 (Q96RI1 whole entry, looked up): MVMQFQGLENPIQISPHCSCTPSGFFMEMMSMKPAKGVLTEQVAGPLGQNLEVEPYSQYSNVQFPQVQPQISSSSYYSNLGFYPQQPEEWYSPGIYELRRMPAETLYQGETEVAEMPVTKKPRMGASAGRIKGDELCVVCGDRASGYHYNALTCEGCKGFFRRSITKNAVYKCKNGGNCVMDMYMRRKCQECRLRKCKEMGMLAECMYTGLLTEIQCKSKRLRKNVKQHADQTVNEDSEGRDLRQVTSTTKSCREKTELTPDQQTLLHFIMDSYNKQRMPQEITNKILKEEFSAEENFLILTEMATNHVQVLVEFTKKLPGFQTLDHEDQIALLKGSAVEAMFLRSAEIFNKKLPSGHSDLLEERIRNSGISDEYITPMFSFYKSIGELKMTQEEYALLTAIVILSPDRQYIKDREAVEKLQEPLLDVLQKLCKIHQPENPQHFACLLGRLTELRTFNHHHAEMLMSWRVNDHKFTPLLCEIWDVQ

Q: For `C=CCOc1c(Br)cc(Br)cc1Br`, which Potency [1] is on record?
A: inactive

Q: And the activity change, negative = cytotoxicity [2]?
A: inconclusive: -32.3% [cytotoxic]

Q: What about the Potency [3] of the same compound?
A: inconclusive: 3.89 µM [rising, full curve, poor fit]

Q: What about the Potency [4] of the same compound?
A: inactive

Q: And the Potency [5]?
A: inconclusive: 0.0616 µM [rising, partial curve, poor fit]

Q: And the Potency [6]?
A: inactive

Q: What about the Potency [7] of the same compound?
A: inconclusive: 21.9 µM [falling, partial curve, poor fit]

Q: And the activity change, negative = inhibition [8, 15]?
A: inconclusive: 3.23%

Q: And the Potency [9]?
A: inactive

Q: Which results are given for `O=S(=O)(O)c1cc(Cl)c(Cl)cc1Cl`?
A: activation [1]: inconclusive: 1.01%; Potency [10]: inactive; Potency [8, 15]: inconclusive: 54.9 µM [activator, single point]; Potency [9]: inconclusive: 0.49 µM [cytotoxic, single point]

Q: With `COc1ccccc1NC(=O)CC(C)=O` as the compound, how does the Potency [1] read?
A: inconclusive: 67.6 µM [rising, single point]

Q: And the Potency [10]?
A: inactive

Q: And the Potency [9]?
A: inconclusive: 7.76 µM [cytotoxic, single point]

Q: Which Potency [1] does the source give for `C[N+](C)(CCOc1ccccc1)Cc1cccs1` here?
A: inactive

Q: And the Potency [10]?
A: inactive

Q: What about the Potency [3] of the same compound?
A: inconclusive: 29.8 µM [cytotoxic, single point]

Q: For `CC(C)c1ccc2oc3nc(N)c(C(=O)O)cc3c(=O)c2c1`, which Potency [1] is on record?
A: active: 23.7 µM

Q: And the Potency [2]?
A: inactive

Q: For `CCCCNC(=O)NS(=O)(=O)c1ccc(C)cc1`, which Potency [1] is on record?
A: inactive

Q: And the Potency [11]?
A: inactive

Q: What about the Potency [4] of the same compound?
A: inactive

Q: What about the Potency [6] of the same compound?
A: inactive

Q: And the Potency [12]?
A: inactive

Q: With `CCOC(=O)Cn1c(=O)sc2cccc(Cl)c21` as the compound, how does the activation [1] read?
A: inconclusive: 24.2%

Q: And the Potency [2]?
A: inconclusive: 21.9 µM [cytotoxic, partial curve, poor fit]

Q: With `CCCCCCCCCCCCCCCC(=O)OC/C=C(C)/C=C/C=C(C)/C=C/C1=C(C)CCCC1(C)C` as the compound, how does the Potency [1] read?
A: inconclusive: 54.5 µM [rising, partial curve, poor fit]

Q: What about the Potency [11] of the same compound?
A: inconclusive: 54.9 µM [activator, partial curve, poor fit]

Q: And the Potency [5]?
A: inconclusive: 0.616 µM [cytotoxic, full curve, poor fit]

Q: And the Potency [8, 15]?
A: inactive

Q: And the Potency [12]?
A: inactive

Q: For `Cc1ccc(C(N)=O)cc1N`, which Potency [1] is on record?
A: inactive

Q: What about the Potency [10] of the same compound?
A: inactive

Q: With `CC(O)CC(C)(C)O` (centres undefined) as the compound, how does the Potency [1] read?
A: inactive

Q: And the Potency [2]?
A: inconclusive: 23.1 µM [cytotoxic, single point]

Q: And the Potency [3]?
A: inconclusive: 42.8 nM [cytotoxic, full curve, poor fit] and inactive

Q: What about the activity change, negative = inhibition [8, 15] of the same compound?
A: inconclusive: 10.5% [at 78.8 µM]

Q: What about the activity change, negative = inhibition ([8]; at 61 µM (top of the series)) of the same compound?
A: inactive: 8.67%

Q: What about the Potency [12] of the same compound?
A: inactive

Q: For `O=C1NCCN1`, which Potency [1] is on record?
A: inactive

Q: And the Potency [2]?
A: inactive

Q: And the Potency [7]?
A: inactive

Q: What does the source list for `Cc1c(Nc2ncccc2C(=O)O)cccc1C(F)(F)F`?
A: activation [1]: inconclusive: 1.34%; Potency [10]: inconclusive: 33.5 µM [rising, single point]; Potency [3]: inconclusive: 7.5 µM [cytotoxic, partial curve, poor fit]; Potency [13]: inconclusive: 37.6 µM [rising, partial curve, poor fit]; viability change, negative = cytotoxic [5]: inconclusive: -30.6% [cytotoxic]; Potency [7]: inconclusive: 29.8 µM [falling, partial curve, poor fit]; Potency [14]: inconclusive: 13.3 µM [rising, partial curve, poor fit]; activity change, negative = inhibition [8, 15]: inconclusive: 16.7%

Q: With `CN1C(=O)N(C)C(O)C1O` (centres undefined) as the compound, how does the Potency [1] read?
A: inactive

Q: What about the Potency [2] of the same compound?
A: inconclusive: 54.9 µM [cytotoxic, single point]

Q: With `CC1=CC(=C(c2ccc(N)cc2)c2ccc(N)cc2)C=CC1=N` as the compound, how does the Potency [1] read?
A: inconclusive: 1.95 µM [rising, partial curve]

Q: What about the Potency [2] of the same compound?
A: inconclusive: 1.56 µM [cytotoxic, full curve, poor fit]

Q: What about the activation [10] of the same compound?
A: inactive: -0.0637% [at 5.95 µM]

Q: What about the activity change, negative = inhibition [8, 15] of the same compound?
A: inconclusive: 14.8% [at 6.95 µM]

Q: And the Potency [9]?
A: inconclusive: 2.78 µM [cytotoxic, single point]
